SMILES strings stand for the structures. The whole screen tested about 310,000 compounds, of which about 14,000 (4.5%) showed an effect of 50% or more. The effect is printed as a negative number. Some of the results follow.

Consider 44 compounds from article PMC4336329 (PLoS ONE, 2015).
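Note: peak tail current of the secondary pulse compared with the same well before compound.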

Sequence of human ether-à-go-go-related gene (hERG) potassium channel (Q12809 whole entry, looked up): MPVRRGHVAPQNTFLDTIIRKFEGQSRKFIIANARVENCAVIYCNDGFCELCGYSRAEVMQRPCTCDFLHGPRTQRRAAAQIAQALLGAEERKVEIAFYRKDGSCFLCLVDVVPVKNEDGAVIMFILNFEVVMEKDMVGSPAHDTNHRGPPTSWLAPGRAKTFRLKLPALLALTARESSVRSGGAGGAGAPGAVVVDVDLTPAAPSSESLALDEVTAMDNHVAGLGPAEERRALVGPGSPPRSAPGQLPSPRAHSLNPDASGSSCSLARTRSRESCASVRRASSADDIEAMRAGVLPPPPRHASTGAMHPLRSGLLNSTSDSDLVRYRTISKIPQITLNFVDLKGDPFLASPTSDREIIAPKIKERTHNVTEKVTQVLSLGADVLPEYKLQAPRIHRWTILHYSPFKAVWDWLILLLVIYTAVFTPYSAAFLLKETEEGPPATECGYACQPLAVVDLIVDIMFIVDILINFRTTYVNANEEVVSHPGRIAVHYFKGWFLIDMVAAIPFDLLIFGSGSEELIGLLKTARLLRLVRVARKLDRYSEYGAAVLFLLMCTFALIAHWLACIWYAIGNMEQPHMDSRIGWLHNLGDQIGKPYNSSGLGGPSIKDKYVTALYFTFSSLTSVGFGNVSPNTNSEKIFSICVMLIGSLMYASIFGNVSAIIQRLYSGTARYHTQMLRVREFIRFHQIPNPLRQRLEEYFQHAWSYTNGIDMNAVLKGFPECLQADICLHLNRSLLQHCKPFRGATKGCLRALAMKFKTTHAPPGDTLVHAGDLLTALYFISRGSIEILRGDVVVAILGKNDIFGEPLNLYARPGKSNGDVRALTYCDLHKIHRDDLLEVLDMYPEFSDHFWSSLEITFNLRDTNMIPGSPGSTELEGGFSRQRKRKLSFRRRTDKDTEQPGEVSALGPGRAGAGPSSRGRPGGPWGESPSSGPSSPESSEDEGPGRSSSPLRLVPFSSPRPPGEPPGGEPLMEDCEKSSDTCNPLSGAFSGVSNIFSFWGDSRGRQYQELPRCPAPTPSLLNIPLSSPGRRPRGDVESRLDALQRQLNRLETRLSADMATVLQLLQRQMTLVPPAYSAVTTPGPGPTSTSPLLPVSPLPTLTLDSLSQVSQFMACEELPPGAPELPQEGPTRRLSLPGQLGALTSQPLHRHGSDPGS

This test addresses human ether-à-go-go-related gene (hERG) potassium channel (human, UniProt Q12809). Kind of test: primary screen, population patch clamp on CHO cells stably expressing hERG.
On to `O=C(COC(=O)c1cccs1)NCC1CCCCC1`, for which the “hERG current change (%, negative = inhibition) at 10uM” value is on record as 13.4%. Next, `CCOC(=O)Cc1cc(-c2ccc(F)cc2)nc2ccc3ccccc3c12`: 22%; `O=C(CCC(=O)Nc1ccccc1Cl)N/N=C/c1ccccc1`: 16.5%. Next, `C=CC[C@]12C=C(OC)C(=O)C(OC)=C1O[C@@H](c1ccc3c(c1)OCO3)[C@H]2C`: 10.8%; `O=C(Cc1cccs1)Nc1ccc(S(=O)(=O)N2CCCC2)cc1`: 10.6%; `CCOC(=O)C1(CC2CCCCO2)CCN(C(=O)Nc2ccccc2CC)CC1` (centres unmarked): -49%.

As for `Cc1ccc(C(=O)NCC(=O)OCC(=O)c2ccc3c(c2)OCCO3)cc1C`, the “hERG current change (%, negative = inhibition) at 10uM” value was determined as 8.26%. Next, `COc1cc(-c2cc(C(=O)Nc3c(Cl)cc(Cl)cc3Cl)c3ccccc3n2)cc(OC)c1OC`: -7.42%. Consider `CC(=O)N1CN2CN(C(C)=O)CC(C(=O)c3ccccc3)(C2)C1`, for which the “hERG current change (%, negative = inhibition) at 10uM” value is listed as 11%. Turning to `CC1CN(C2=CC(=O)CCC2)CC(C)O1` (centres unmarked), the “hERG current change (%, negative = inhibition) at 10uM” value is recorded as 34.6%. Under `CC1CC(=O)N(c2ccc(NCCc3ccccc3)c([N+](=O)[O-])c2)C1=O` (centres unmarked) stands -8.36%. Turning to `COc1ccc(C2C(C(C)=O)=C(C)N=c3s/c(=C\c4cc(C)n(C)c4C)c(=O)n32)c(OC)c1` (centres unmarked), the “hERG current change (%, negative = inhibition) at 10uM” value was -8.87%. Next, `COc1ccc(CCNC(=O)c2nnn(CC(=O)Nc3ccc(C)cc3C)c2N)cc1OC`: 13.8%; `CCOC(=O)C(NC(=O)CC)(Nc1sc2c(c1C(=O)OC)CCN(C)C2)C(F)(F)F` (centres unmarked): -13.7%. Consider `COc1ccc(CC2(C)OC(c3ccccc3)=NN2C(C)=O)cc1` (centres unmarked), for which the “hERG current change (%, negative = inhibition) at 10uM” value is given as -18.9%.

On to `O=C(Cn1cc(C(=O)C(F)(F)F)c2ccccc21)Nc1ccccc1F`, for which the “hERG current change (%, negative = inhibition) at 10uM” value was found to be 21.4%.

In the case of `Cc1ccccc1OCC(=O)NCC(c1ccco1)N1CCCCC1` (centres unmarked), the “hERG current change (%, negative = inhibition) at 10uM” value is recorded as -31.4%.

With `COc1ccc(S(=O)(=O)n2nc(C)cc2C)cc1OC`, the “hERG current change (%, negative = inhibition) at 10uM” value was determined as 5.17%. With `Cc1cc(C(=O)CSc2nnc(-c3cccc(F)c3)n2N)c(C)n1Cc1ccc2c(c1)OCO2`, the “hERG current change (%, negative = inhibition) at 10uM” value was 7.69%. Consider `COCc1c(C(=O)OC/C(O)=C(\C#N)c2nc3ccccc3[nH]2)oc2ccccc12`, for which the “hERG current change (%, negative = inhibition) at 10uM” value stood at 29.4%. For the compound `Cc1nn(C(=O)CCCC(=O)NCc2ccccc2)c2ccccc12`, the “hERG current change (%, negative = inhibition) at 10uM” value is on record as -4.39%. Next, `Cc1csc(SCC(=O)NC(C)C2CC3CCC2C3)n1` (centres unmarked): -19.3%; `O=S1(=O)N=C(Nc2nc3c(s2)CCCC3)c2ccccc21`: 2.79%; `Cc1ccc(CNC(=O)C2CC3Cn4c(nc5cc(C)c(C)cc54)C3N2C)o1` (centres unmarked): -36.9%. As for `COc1ccc(CN2C(=O)NC(=O)/C(=C\c3ccc(OC)c(OC)c3OC)C2=O)cc1`, the “hERG current change (%, negative = inhibition) at 10uM” value was found to be 19.3%. Under `CCOC(=O)C1=C(c2ccccc2)Nc2ncnn2C1c1cc(OC)cc(OC)c1OC` (centres unmarked) stands -6.8%. In the case of `CNc1nc(-c2ccc3c(c2)CCN3S(=O)(=O)c2ccccc2)c(C)s1`, the “hERG current change (%, negative = inhibition) at 10uM” value is listed as 6.35%.

In the case of `Brc1cc(-c2ccccc2)nc(-c2ccccc2)n1`, the “hERG current change (%, negative = inhibition) at 10uM” value came to 7.42%. Under `CN(CCc1ccccn1)C(=O)CCC1CCCN(C(=O)c2cccc(N(C)C)c2)C1` (centres unmarked) stands 7.98%; under `CCOC(=O)c1cnc2ccc(C)cc2c1OCc1cc(F)cc(F)c1`, -18%; under `C#CC1(NC(=O)N(C)C)CCCCC1`, 11.5%. Regarding `Cc1cc(C)cc(N2C(=O)CC(Sc3ccccc3C(=O)O)C2=O)c1` (centres unmarked), the “hERG current change (%, negative = inhibition) at 10uM” value was determined as 9.18%. Under `CCOCCNC(=O)c1ccc2c3c(cccc13)CC2` stands 3.39%; under `Cc1cc2ncn(-c3ncnc4sc5c(c34)CCC(C)C5)c2cc1C` (centres unmarked), -20.4%; under `O=C(NC1CCCCCC1)C(=O)NC1CC1`, 16.2%. For `O=C(C[n+]1cc(-c2ccc(F)cc2)n2c1CCC2)Nc1nc(-c2ccccc2)cs1.[Cl-]`, the “hERG current change (%, negative = inhibition) at 10uM” value is listed as -11.1%. Regarding `O=C(O)c1ccccc1C(=O)N1N=C2/C(=C/c3cccc([N+](=O)[O-])c3)CCCC2C1c1cccc([N+](=O)[O-])c1` (centres unmarked), the “hERG current change (%, negative = inhibition) at 10uM” value was 10.7%. Take `CN(C)c1oc(-c2ccccc2Cl)nc1S(=O)(=O)c1ccccc1`: the “hERG current change (%, negative = inhibition) at 10uM” value is reported as -18.3%. Next, `Cc1ccc(NC(=O)C2CCN(S(=O)(=O)c3cccs3)CC2)c(O)c1`: -4.34%. Under `CC(NC(=O)c1ccc2c(c1)S(=O)(=O)N=C1CCCCCN12)c1ccc(S(N)(=O)=O)cc1` (centres unmarked) stands 17.2%.

Turning to `C=CCC1c2cccc(C(=O)O)c2C(=O)N1c1ccc(F)cc1` (centres unmarked), the “hERG current change (%, negative = inhibition) at 10uM” value was -4.59%. Under `CCOC(=O)C1CCN(S(=O)(=O)c2ccc(OC)c(C(=O)N3CCCCCC3)c2)CC1` stands -12.5%; under `COc1cc(CN2CCCC(C(=O)Nc3ccccc3Oc3cccnc3)C2)ccc1F` (centres unmarked), -39%. Next, `NNC(=O)C(Cc1ccccc1)NC(=O)OCc1ccccc1` (centres unmarked): 21%.
